This note sets out measurements from article PMC2691479, “SNX4 in Complex with Clathrin and Dynein: Implications for Endosome Movement” (PLoS ONE, 2009).

Sequences of proteins named here, by UniProt entry; tags and fusion partners are left off.
UniProt Q00610: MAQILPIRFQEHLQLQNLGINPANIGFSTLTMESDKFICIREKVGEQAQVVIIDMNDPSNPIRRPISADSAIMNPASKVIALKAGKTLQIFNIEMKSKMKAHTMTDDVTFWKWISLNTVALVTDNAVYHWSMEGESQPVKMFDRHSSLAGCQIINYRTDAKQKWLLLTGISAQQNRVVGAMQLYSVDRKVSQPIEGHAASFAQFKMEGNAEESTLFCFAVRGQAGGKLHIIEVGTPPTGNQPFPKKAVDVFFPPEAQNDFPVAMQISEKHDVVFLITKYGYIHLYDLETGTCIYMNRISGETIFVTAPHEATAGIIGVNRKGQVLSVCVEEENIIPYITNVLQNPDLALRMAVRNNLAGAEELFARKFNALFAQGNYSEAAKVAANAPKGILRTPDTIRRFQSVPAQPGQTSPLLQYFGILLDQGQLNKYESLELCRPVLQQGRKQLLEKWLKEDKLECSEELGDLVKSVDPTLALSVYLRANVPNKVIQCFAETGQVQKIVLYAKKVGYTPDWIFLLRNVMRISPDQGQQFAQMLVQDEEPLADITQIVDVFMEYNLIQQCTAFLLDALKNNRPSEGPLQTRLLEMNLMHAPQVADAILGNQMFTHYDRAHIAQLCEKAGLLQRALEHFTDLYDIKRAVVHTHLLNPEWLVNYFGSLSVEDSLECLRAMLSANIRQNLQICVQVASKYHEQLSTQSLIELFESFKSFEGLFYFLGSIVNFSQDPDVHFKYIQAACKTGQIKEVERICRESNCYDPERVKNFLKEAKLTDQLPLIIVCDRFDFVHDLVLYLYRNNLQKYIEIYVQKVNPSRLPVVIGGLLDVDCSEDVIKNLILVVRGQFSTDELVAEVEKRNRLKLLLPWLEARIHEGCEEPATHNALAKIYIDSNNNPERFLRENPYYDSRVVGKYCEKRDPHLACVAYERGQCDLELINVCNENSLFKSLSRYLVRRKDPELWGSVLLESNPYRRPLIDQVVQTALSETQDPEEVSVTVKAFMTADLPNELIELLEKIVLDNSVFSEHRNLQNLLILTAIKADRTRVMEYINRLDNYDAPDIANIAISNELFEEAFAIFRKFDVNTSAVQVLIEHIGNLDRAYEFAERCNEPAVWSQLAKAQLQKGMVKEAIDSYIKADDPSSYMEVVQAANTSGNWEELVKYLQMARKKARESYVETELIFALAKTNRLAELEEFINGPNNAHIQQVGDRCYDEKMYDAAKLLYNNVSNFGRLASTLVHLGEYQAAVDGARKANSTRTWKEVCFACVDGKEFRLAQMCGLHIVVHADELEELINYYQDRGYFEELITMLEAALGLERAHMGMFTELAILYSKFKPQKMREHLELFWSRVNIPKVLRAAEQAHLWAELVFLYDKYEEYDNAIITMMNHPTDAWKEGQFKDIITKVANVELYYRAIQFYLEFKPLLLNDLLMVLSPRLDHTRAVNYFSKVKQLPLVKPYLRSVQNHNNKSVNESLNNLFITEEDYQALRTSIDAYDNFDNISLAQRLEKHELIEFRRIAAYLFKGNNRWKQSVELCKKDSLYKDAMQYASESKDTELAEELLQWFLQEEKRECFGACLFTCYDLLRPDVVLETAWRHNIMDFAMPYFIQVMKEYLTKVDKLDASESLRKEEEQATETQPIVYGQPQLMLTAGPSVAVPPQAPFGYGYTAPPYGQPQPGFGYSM

In test [1] the target is T1, Sorting nexin 4 (SNX4), endogenous (human (endogenous in HEK293)) (UniProt O95219).
T1 sequence: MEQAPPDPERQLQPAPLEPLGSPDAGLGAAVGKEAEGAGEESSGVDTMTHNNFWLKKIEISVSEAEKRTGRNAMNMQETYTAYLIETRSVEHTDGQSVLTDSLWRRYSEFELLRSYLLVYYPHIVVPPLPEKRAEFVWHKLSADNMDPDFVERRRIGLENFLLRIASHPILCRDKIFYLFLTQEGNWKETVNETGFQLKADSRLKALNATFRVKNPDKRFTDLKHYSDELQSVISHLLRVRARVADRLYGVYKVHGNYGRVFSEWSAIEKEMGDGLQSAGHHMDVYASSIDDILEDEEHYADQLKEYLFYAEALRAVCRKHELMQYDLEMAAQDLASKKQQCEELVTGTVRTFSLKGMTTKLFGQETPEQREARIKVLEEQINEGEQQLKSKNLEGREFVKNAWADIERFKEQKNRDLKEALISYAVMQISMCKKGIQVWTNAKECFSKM
The experiment in a line: co-IP; anti-SNX4 (E-18) on Protein A Sepharose, HEK293 lysate (0.1 M NaCl, 10 mM Na2HPO4 pH 7.4, 1 mM EDTA, 1% Triton X-100), overnight at 4°C, Western blot; cells untreated, or transfected with control, SNX4 or CHC siRNA, or treated with nocodazole for 30 min.

In test [2] the target is T2, SNX4 198-451Δ with myc and 6xHis tags (UniProt O95219).
T2 sequence: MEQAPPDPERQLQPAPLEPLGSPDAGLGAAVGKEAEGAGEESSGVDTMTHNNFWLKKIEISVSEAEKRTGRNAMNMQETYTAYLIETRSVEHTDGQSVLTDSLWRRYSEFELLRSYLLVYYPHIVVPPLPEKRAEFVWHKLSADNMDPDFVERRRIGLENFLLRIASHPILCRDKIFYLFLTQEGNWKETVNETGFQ
Nature of the test: co-IP; anti-myc (9E10) immunoprecipitation from lysate of HEK293 cells transfected with myc-tagged SNX4 constructs, 3-4 h at 4°C, Western blot. A general note: In western blotting, separated proteins are transferred to a membrane and probed.

Test [3] addresses T3, SNX4 wt with myc and 6xHis tags (UniProt O95219).
T3 sequence: T1 sequence
Described as above.

A further test addresses T4, GST-SNX4 105-116 E111A (UniProt O95219).
T4 sequence: RRYSEFALLRSY
Nature of the test: pull-down; GST proteins on Glutathione Sepharose beads with 200 µl HEK293 cell lysate, overnight at 4°C, washed with 0.1% Triton X-100 in PBS, Western blot; only the target purified.

For the next test, the target named is T5, GST-SNX4 105-116 L112A (UniProt O95219).
T5 sequence: RRYSEFEALRSY
The test is described as above.

In a further test the target is T6, GST-Hrs(707-775) (UniProt Q99LI8).
T6 sequence: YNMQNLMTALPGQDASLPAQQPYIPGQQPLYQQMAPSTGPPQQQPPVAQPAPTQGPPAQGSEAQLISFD
The description is as above.

In another test the target is T7, GST-SNX4 105-116 F110A (UniProt O95219).
T7 sequence: RRYSEAELLRSY
The test is described as above.

The target of the next test is T8, GST-SNX4 105-116 (UniProt O95219).
T8 sequence: RRYSEFELLRSY
The description is as above.

In a further test the target is T9, GST-SNX4 101-132 (UniProt O95219).
T9 sequence: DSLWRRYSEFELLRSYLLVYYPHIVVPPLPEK
The description is as above.

Another test addresses T10, GST-SNX4 105-116 E109A (UniProt O95219).
T10 sequence: RRYSAFELLRSY
The description is as above.

For the next test, the target named is T11, GST-SNX4 105-116 L113A (UniProt O95219).
T11 sequence: RRYSEFELARSY
The test is described as above.

The target of test [4] is T1, Sorting nexin 4 (SNX4), endogenous (human (endogenous in HEK293)). The experiment in a line: condition: only cells treated with 100 nM wortmannin for 30 min; co-IP; as a1, but HEK293 cells treated with 100 nM wortmannin for 30 min before lysis; anti-SNX4 immunoprecipitation overnight at 4°C.

Results are given in words; binding and its absence hold for the method and conditions named. Binding seen in cells or lysates may run through a third protein. Some entries that bind do so weakly or less than the wild type. For part of these data: Tags and fused reporters may be left off the sequences shown.

Regarding “clathrin heavy chain (CHC), endogenous (from UniProt Q00610 1-1675)”, the binding result in [1] is reported as “binds”; in test [2], “binds”; in [3], “binds”; in the test with GST-SNX4 105-116 E111A, “no binding”; in the test with GST-SNX4 105-116 L112A it was “no binding”; in the test with GST-Hrs(707-775), “binds”. Besides, the binding entry in the test with GST-SNX4 105-116 F110A was “no binding”; in the test with GST-SNX4 105-116 it was “binds”; in the test with GST-SNX4 101-132, “binds”; in the test with GST-SNX4 105-116 E109A it was “binds”; with GST-SNX4 105-116 L113A, “no binding”; in test [4] it was “no binding”.
